Reference: the supplement of paper PMC4604168 (melanoma cell lines)
The list shows a part of the results. Most values come without repeats; read them as rough.

How the values were obtained:
Experiment in all cases: cell count relative to DMSO control; melanoma cells; higher = more viable cells
Conditions in all cases: library dose: low library concentration; 72 h
MZ2-MEL = tested on: MZ2-MEL
MeWo = tested on: MeWo
RPMI7951 = tested on: RPMI7951
RVH-421 = tested on: RVH-421
SkMel28 = tested on: SkMel28
SkMel2 = tested on: SkMel2
SkMel30 = tested on: SkMel30
SkMel5 = tested on: SkMel5
UACC257 = tested on: UACC257
UACC62 = tested on: UACC62
WM115 = tested on: WM115
WM1716 = tested on: WM1716
WM1745 = tested on: WM1745
WM3526 = tested on: WM3526
WM3619 = tested on: WM3619
WM451Lu = tested on: WM451Lu
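Further: cell number obtained by counting DAPI-stained nuclei in high-throughput microscope images with image analysis software, screen run in 1,536-well plates.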

| SMILES | cell count (MZ2-MEL) [%] | cell count (MeWo) [%] | cell count (RPMI7951) [%] | cell count (RVH-421) [%] | cell count (SkMel28) [%] | cell count (SkMel2) [%] | cell count (SkMel30) [%] | cell count (SkMel5) [%] | cell count (UACC257) [%] | cell count (UACC62) [%] | cell count (WM115) [%] | cell count (WM1716) [%] | cell count (WM1745) [%] | cell count (WM3526) [%] | cell count (WM3619) [%] | cell count (WM451Lu) [%] |
| --- | --- | --- | --- | --- | --- | --- | --- | --- | --- | --- | --- | --- | --- | --- | --- | --- |
| CCN(CC)CCNC(=O)c1c(C)[nH]c(/C=C2\C(=O)Nc3ccc(F)cc32)c1C [sunitinib] + Oc1cc(-c2nc(-c3ccccc3)[nH]c2-c2ccncc2)ccc1Cl [L779450] (first compound 0.4 µM, partner dose 0.2 µM) | 86.8 | 84.6 | 101 | 84.2 | 87 | 68.2 | 65.6 | 109 | 96.4 | 64 | 71.2 | 131 | 69.4 | 46.1 | 129 | 79.9 |
| C[C@]1(O)C[C@@H](c2nc(-c3ccc4ccc(-c5ccccc5)nc4c3)c3c(N)nccn32)C1 + CC(C)CCN1c2nc(Nc3cc(F)c(O)c(F)c3)ncc2N(C)C(=O)C1C [BID1870] (first compound 0.4 µM, partner dose 0.2 µM) | 93.8 | 90.2 | 92.7 | 99.3 | 80.2 | 68.9 | 74.1 | 74.2 | 92 | 76.6 | 102 | 107 | 73.7 | 85.5 | 107 | 107 |
| C[C@]1(O)C[C@@H](c2nc(-c3ccc4ccc(-c5ccccc5)nc4c3)c3c(N)nccn32)C1 + O=C(Nc1ccccc1)c1cc([N+](=O)[O-])ccc1Cl [GW9662] (first compound 0.4 µM, partner dose 2 µM) | 93.2 | 82.9 | 93 | 83.6 | 80.2 | 85.7 | 81.6 | 84.1 | 100 | 82.5 | 107 | 86.4 | 72 | 91.2 | 86.6 | 82.9 |
| Cn1cnc2c(F)c(Nc3ccc(Br)cc3Cl)c(C(=O)NOCCO)cc21 [selumetinib] + C[C@@H]1CCN(C(=O)CC#N)C[C@@H]1N(C)c1ncnc2[nH]ccc12 [CP690550] (first compound 0.015 µM, partner dose 1 µM) | 84.5 | 99.2 | 97.9 | 80.5 | 81.9 | 90 | 77 | 112 | 89.6 | 65.6 | 85 | 99.9 | 106 | 77 | 87.9 | 96.4 |
| Cn1cnc2c(F)c(Nc3ccc(Br)cc3Cl)c(C(=O)NOCCO)cc21 [selumetinib] + CCN(CC)CCCCNc1ncc2cc(-c3cc(OC)cc(OC)c3)c(NC(=O)NC(C)(C)C)nc2n1 [PD173074] (first compound 0.015 µM, partner dose 0.1 µM) | 94.9 | 95.1 | 88.4 | 108 | 92.5 | 68.3 | 67.9 | 105 | 102 | 83.5 | 98.5 | 109 | 94 | 75.7 | 92 | 99.9 |
| Cn1cnc2c(F)c(Nc3ccc(Br)cc3Cl)c(C(=O)NOCCO)cc21 [selumetinib] + Oc1nc(-c2ccc(C(F)(F)F)cc2)nc2c1CSCC2 [XAV939] (first compound 0.015 µM, partner dose 2 µM) | 95.7 | 95.1 | 90 | 78.1 | 82.6 | 88.7 | 61.3 | 88.2 | 80.8 | 63.1 | 81.5 | 69.9 | 73.9 | 83.4 | 88.4 | 102 |
| COc1cc([C@@H]2c3cc4c(cc3[C@@H](O[C@@H]3O[C@@H]5CO[C@@H](C)O[C@H]5[C@H](O)[C@H]3O)[C@H]3COC(=O)[C@H]23)OCO4)cc(OC)c1O [etoposide] + C=CCn1c(=O)c2cnc(Nc3ccc(N4CCN(C)CC4)cc3)nc2n1-c1cccc(C(C)(C)O)n1 [MK1775] (first compound 0.02 µM, partner dose 0.02 µM) | 91.1 | 83.6 | 95.9 | 84.8 | 82.5 | 98.5 | 95.8 | 95.7 | 97.1 | 72.5 | 84.4 | 70.1 | 83.9 | 85.1 | 71.2 | 124 |
| COc1cc([C@@H]2c3cc4c(cc3[C@@H](O[C@@H]3O[C@@H]5CO[C@@H](C)O[C@H]5[C@H](O)[C@H]3O)[C@H]3COC(=O)[C@H]23)OCO4)cc(OC)c1O [etoposide] + COc1ccc(COc2ccc(Cc3cnc(N)nc3N)cc2OC)cc1 [GW2580] (first compound 0.02 µM, partner dose 1 µM) | 97.2 | 99.7 | 97.7 | 94.5 | 102 | 109 | 111 | 95.3 | 80.7 | 91 | 86 | 90.2 | 92.7 | 87.1 | 98.1 | 78.3 |
| Cn1cnc2c(F)c(Nc3ccc(Br)cc3Cl)c(C(=O)NOCCO)cc21 [selumetinib] + O=C(Nc1cccc(Cl)c1)Nc1ncc(CCNc2ncnc3ccsc23)s1 [SNS314] (first compound 0.015 µM, partner dose 0.0008 µM) | 102 | 89.2 | 117 | 84.5 | 104 | 77.2 | 65 | 109 | 87.9 | 95.3 | 93.9 | 118 | 82.5 | 88.5 | 77.6 | 101 |
| Cn1cnc2c(F)c(Nc3ccc(Br)cc3Cl)c(C(=O)NOCCO)cc21 [selumetinib] + COc1ccc2c(c1)CCC1C2CCC2(C)C(NCCCCCCN3C(=O)C=CC3=O)CCC12 [U73122] (first compound 0.015 µM, partner dose 0.4 µM) | 89.9 | 84.5 | 91.2 | 65.9 | 95.9 | 73.9 | 63.3 | 116 | 89 | 66.8 | 113 | 97.3 | 82.7 | 75.5 | 83.5 | 93 |
| CCN(CC)CCNC(=O)c1c(C)[nH]c(/C=C2\C(=O)Nc3ccc(F)cc32)c1C [sunitinib] + COc1cc2c(Oc3ccc4[nH]c(C)cc4c3F)ncnc2cc1OCCCN1CCCC1 [cediranib] (first compound 0.4 µM, partner dose 0.4 µM) | 104 | 94.5 | 91.7 | 102 | 76.4 | 95.3 | 82.3 | 104 | 96.4 | 88.1 | 89.4 | 119 | 83 | 94 | 106 | 81.6 |
| C[C@]1(O)C[C@@H](c2nc(-c3ccc4ccc(-c5ccccc5)nc4c3)c3c(N)nccn32)C1 + COc1ccc(COc2ccc(Cc3cnc(N)nc3N)cc2OC)cc1 [GW2580] (first compound 0.4 µM, partner dose 1 µM) | 97.4 | 87.9 | 108 | 9.45 | 92.7 | 96.1 | 101 | 87.4 | 76.2 | 81.8 | 99.8 | 106 | 73.1 | 86.3 | 103 | 86.6 |
| Cn1cnc2c(F)c(Nc3ccc(Br)cc3Cl)c(C(=O)NOCCO)cc21 [selumetinib] + NC(=O)Nc1cc(-c2cccc(F)c2)sc1C(=O)N[C@H]1CCCNC1 [AZD7762] (first compound 0.015 µM, partner dose 0.02 µM) | 91 | 91.8 | 123 | 95 | 99.4 | 77.3 | 79.6 | 118 | 147 | 75.3 | 78.2 | 112 | 90.4 | 80.6 | 63.3 | 103 |
| CCN(CC)CCNC(=O)c1c(C)[nH]c(/C=C2\C(=O)Nc3ccc(F)cc32)c1C [sunitinib] + O=C1NC(=O)/C(=C/c2ccc(-c3ccc(F)cc3O)o2)S1 [AS252424] (first compound 0.4 µM, partner dose 1 µM) | 99.2 | 83.3 | 113 | 92.6 | 94.3 | 110 | 80.4 | 108 | 72.1 | 104 | 110 | 117 | 88.2 | 75.4 | 120 | 97.5 |
| C[C@]1(O)C[C@@H](c2nc(-c3ccc4ccc(-c5ccccc5)nc4c3)c3c(N)nccn32)C1 + Cc1ccc(NC(=O)c2cccc(N(C)C)c2)cc1NC(=O)c1ccc(O)cc1 [ZM336372] (first compound 0.4 µM, partner dose 2 µM) | 81.6 | 105 | 70.4 | 74.4 | 85.6 | 92.4 | 93.5 | 80.4 | 79 | 101 | 131 | 101 | 74 | 85.2 | 90.6 | 90.4 |
| CCN(CC)CCNC(=O)c1c(C)[nH]c(/C=C2\C(=O)Nc3ccc(F)cc32)c1C [sunitinib] + O=C(O)c1ccc(-c2c[nH]c3ncc(-c4ccccc4)cc23)cc1C1CCCC1 [GSK650394] (first compound 0.4 µM, partner dose 0.16 µM) | 106 | 93.1 | 102 | 97.9 | 83.5 | 99.2 | 77.9 | 95.4 | 97.8 | 94.6 | 105 | 144 | 65 | 77.9 | 94.9 | 122 |
| COc1cc([C@@H]2c3cc4c(cc3[C@@H](O[C@@H]3O[C@@H]5CO[C@@H](C)O[C@H]5[C@H](O)[C@H]3O)[C@H]3COC(=O)[C@H]23)OCO4)cc(OC)c1O [etoposide] + CC1(C)NC(=O)N(c2ccc([N+](=O)[O-])c(C(F)(F)F)c2)C1=O [nilutamide] (first compound 0.02 µM, partner dose 1 µM) | 86.8 | 93.1 | 107 | 106 | 91.3 | 100 | 112 | 83.1 | 85.8 | 74.3 | 89.1 | 91.9 | 95.2 | 103 | 89.3 | 101 |
| COc1cc([C@@H]2c3cc4c(cc3[C@@H](O[C@@H]3O[C@@H]5CO[C@@H](C)O[C@H]5[C@H](O)[C@H]3O)[C@H]3COC(=O)[C@H]23)OCO4)cc(OC)c1O [etoposide] + COc1cc2ncnc(Nc3ccc(Oc4ccccc4)cc3)c2cc1OC [SrcI1] (first compound 0.02 µM, partner dose 2 µM) | 90.3 | 81.6 | 94.1 | 130 | 92.7 | 93.8 | 80.9 | 100 | 114 | 87.1 | 94.1 | 109 | 80.7 | 76.4 | 74.3 | 109 |
